Drawing on PubChem BioAssay AID2060615 (Molecular Pharmacology Branch, DTP, NCI, 2025), this text covers IC50 for one compound.

The term IC50 denotes the concentration that inhibits the measured activity by half.

The source holds more than one record for some entries. The list is limited to them. An entry can have further records. Values given together repeat one measurement across runs, samples, wells, individuals or studies.

For this experiment, the system named is 496974-208-R-J2-PDC complex spheroids, growth % test/control. Briefly: Anticancer human tumor 496974-208-R-J2-PDC patient-derived pancreatic carcinoma cell line growth inhibition [CLK]. The conditions noted are these: compound alone. The source says: A high-throughput screen of multi-cell type tumor spheroids was designed to identify active combinations of […] and targeted small molecules. Complex spheroids include a stromal component modeled by human endothelial cells (HUVEC) and fibroblasts modeled by human mesenchymal stem cells (MSCs). The concentration ranges selected for each drug and investigational agent were based upon clinically achievable concentrations if the clinical Cmax of the agent was known.
Compounds. The drugs and investigational agents: cirtuvivint (SM08502; NSC835563), CC-671 (NSC850746), vemurafenib (NSC761431), tapotoclax (NSC804041), sotorasib (NSC818433), adagrasib (NSC831453), MRTX-1133 (NSC836407), BAY2416964 (NSC825713), copanlisib (NSC816437), inavolisib (NSC800729), abemaciclib (NSC768073), osimertinib (NSC779217), entinostat (NSC756642), eltanexor (KPT-8602, NSC794443), venetoclax (NSC766270), ceralasertib (NSC777638), bortezomib (NSC756655), olaparib (NSC753686), talazoparib (NSC767125), alisertib (NSC759677), peposertib (NSC802822), gemcitabine (NSC613327), 5-fluorouracil (NSC19893), SN-38 (NSC673596), oxaliplatin (NSC266046), paclitaxel (NSC125973), and doxorubicin (NSC123127), were obtained from the National Cancer Institute (NCI) Developmental Therapeutics Program Chemical Repository. […] If the clinical Cmax for an agent had not been determined, the highest concentration tested was 10 microM. […]
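Further: spheroids exposed to the drugs for 7 days before readout.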

Regarding `Nc1ccn(C2OC(CO)C(O)C2(F)F)c(=O)n1` (stereo unspecified), the IC50 was 855 nM and > 10 µM.
